Laboratory results from PubChem BioAssay AID1476 (National Center for Advancing Translational Sciences (NCATS), 2009).
Screen size: about 200,000 compounds; about 4,500 (2.2%) were called active. Inconclusive results, whose numbers are uncertain, are shown with a selection of clear calls. The call rests on the fitted dose curve; in most records, active means well fitted inhibition curve with a large enough effect; inconclusive means small, poorly fitted or top-dose-only effect, or effect the other way; inactive means flat fitted curve, though single readings scatter. Where the call is inconclusive, the potency comes from a doubtful curve fit.

Target: Cruzipain (Trypanosoma cruzi) (UniProt P25779)
Test: qHTS Assay for Promiscuous and Specific Inhibitors of Cruzain (without detergent); further: nearly all actives have a fitted effect of over 40% in size;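 on max response, negative = inhibition: plate controls were enzyme without inhibitor for no effect and buffer without enzyme for full effect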
Settings: purified cruzain, Z-FR-AMC fluorescence, no detergent
Method in brief: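 Detergent-free condition (0.00005% Triton X-100) in acetate buffer pH 5.5 with DTT. 1.5 nM enzyme and compound were pre-mixed 15 min, then 2 uM Z-FR-AMC substrate added; reaction progress from fluorescence change between first and third reads (60 s).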
Potency means the concentration at half of the fitted maximal effect; tags describe the fitted curve by direction and shape.

UniProt P25779, sequence (P25779 whole entry, looked up): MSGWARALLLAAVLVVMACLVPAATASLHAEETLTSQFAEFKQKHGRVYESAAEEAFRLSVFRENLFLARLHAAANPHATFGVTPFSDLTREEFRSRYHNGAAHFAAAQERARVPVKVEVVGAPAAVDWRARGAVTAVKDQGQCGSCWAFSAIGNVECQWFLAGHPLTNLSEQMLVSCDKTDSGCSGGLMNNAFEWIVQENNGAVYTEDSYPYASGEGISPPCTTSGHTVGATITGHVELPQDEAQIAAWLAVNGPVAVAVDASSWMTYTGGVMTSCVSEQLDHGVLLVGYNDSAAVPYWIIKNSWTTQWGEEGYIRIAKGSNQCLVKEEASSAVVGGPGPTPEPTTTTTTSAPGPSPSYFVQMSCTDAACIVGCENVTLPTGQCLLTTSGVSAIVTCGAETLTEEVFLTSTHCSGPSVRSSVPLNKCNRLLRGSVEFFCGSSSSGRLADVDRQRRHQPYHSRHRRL

Q: For `COCCNC(=O)C(c1ccc(C)cc1)N(C(=O)CCC(=O)Nc1ccccn1)C1CCCC1` (stereo not drawn), which Potency is on record?
A: inconclusive: 25.1 µM [activator, partial curve]

Q: For `C[C@@]12CCC(=O)C=C1CC[C@H]1C2[C@@H](O)C[C@]2(C)[C@@H]1CC[C@@]2(O)C(=O)CO` (stereo partly drawn), which max response, negative = inhibition is on record?
A: inactive: -3.97%

Q: For `CCOC(=O)c1c(C)n(C)c2ccc(OCC(O)Cn3nc(C)c(Br)c3C)cc12` (stereo not drawn), which Potency is on record?
A: inconclusive: 39.8 µM [activator, single point]

Q: Which Potency does the source give for `C=CCNc1sc(C(=O)c2ccccc2)c(N)c1-c1nc2ccccc2s1` here?
A: active: 7.94 µM

Q: How did the Potency turn out when `COCCn1c(C)cc(O)c(C(c2ccccc2F)N2CCN(c3ccccc3)CC2)c1=O` (stereo not drawn) was run?
A: inconclusive: 3.16 µM [inhibitor, single point]

Q: Which max response, negative = inhibition does the source give for `O=C(c1cccc(Cl)c1)N1CCC(=O)N(C(COCc2cccc(Cl)c2)Cc2ccccc2)CC1` (stereo not drawn) here?
A: inactive: 8.42%

Q: Which Potency does the source give for `COc1cccc(OCc2cc(/C=N/NC(=O)c3nc(Cl)c(Cl)c(N)c3Cl)ccc2OC)c1` here?
A: inconclusive: 3.16 µM [inhibitor, single point]

Q: With `S=C(Nc1ccc2cn[nH]c2c1)Nc1ccccc1Cl` as the molecule, how does the max response, negative = inhibition read?
A: inactive: -15.7%

Q: With `CCCN1CCN(CCCNC(=O)c2cc3c(s2)-c2ccccc2OC3)CC1` as the molecule, how does the Potency read?
A: inconclusive: 39.8 µM [inhibitor, single point]

Q: Which Potency does the source give for `O=C(CN(Cc1ccc(Cl)c(Cl)c1)S(=O)(=O)c1ccccc1)N/N=C\c1ccc2c(c1)OCO2` here?
A: inconclusive: 39.8 µM [inhibitor, single point]

Q: For `CCn1cc(C(=O)N2CCN(c3cccc(C)c3)C(C)C2)c(=O)c2cc(S(=O)(=O)N3CCOCC3)ccc21` (stereo not drawn), which max response, negative = inhibition is on record?
A: inactive: 26.4%

Q: With `COc1cccc(C(=O)CSc2nnc(-c3cc(OC)c(OC)c(OC)c3)o2)c1` as the molecule, how does the Potency read?
A: inconclusive: 39.8 µM [activator, single point]

Q: `CCOC(=O)C1CCCN(C(=O)c2ccc([N+](=O)[O-])c(C)c2)C1` (stereo not drawn) was tested. Which max response, negative = inhibition did it give?
A: inactive: 3.54%

Q: Which Potency does the source give for `O=C(c1cccs1)N1CCC(c2nc(-c3ccc(S(=O)(=O)N4CCOCC4)cc3)no2)CC1` here?
A: inconclusive: 39.8 µM [activator, single point]

Q: Which Potency does the source give for `COc1cccc(-c2csc(N3CCN(C(=O)NC45CC6CC(CC(C6)C4)C5)CC3)n2)c1` here?
A: inconclusive: 25.1 µM [inhibitor, partial curve]

Q: Which Potency does the source give for `CCOc1ccc(N(CC(=O)Nc2ccccc2C(=O)N2CCOCC2)S(=O)(=O)c2ccc(F)cc2)cc1` here?
A: inconclusive: 39.8 µM [activator, single point]

Q: With `COc1cccc(NC(=O)/C(C#N)=C/c2ccc(-c3ccc(C)cc3)o2)c1` as the molecule, how does the Potency read?
A: inconclusive: 39.8 µM [inhibitor, single point]

Q: With `O=C(Nc1ccc(Oc2ccccc2)cc1)c1ccc(F)c(S(=O)(=O)N2CCN(c3ccccc3F)CC2)c1` as the molecule, how does the Potency read?
A: active: 7.94 µM

Q: Which Potency does the source give for `O=[N+]([O-])c1ccc(-c2nc(-c3cccs3)c(-c3cccs3)[nH]2)cc1` here?
A: active: 31.6 µM

Q: With `Cc1cc(C)nc(-n2nc(C)c3c2N(Cc2ccccc2C)C(=O)CC3c2ccc(Cl)cc2)n1` (stereo not drawn) as the molecule, how does the Potency read?
A: inconclusive: 6.31 µM [activator, single point]

Q: For `COC(=O)c1ccccc1N(C)S(=O)(=O)c1cc2c3c(c1)CC(=O)N3CCC2`, which Potency is on record?
A: inconclusive: 31.6 µM [activator, single point]

Q: Which max response, negative = inhibition does the source give for `COc1ccc(Oc2ncc3nc(C)c(=O)n(Cc4cccs4)c3n2)cc1` here?
A: inactive: 13%

Q: For `Cc1cc(C)c2nc(N3CCCC(C(=O)N4CCN(c5ncccn5)CC4)C3)sc2c1` (stereo not drawn), which Potency is on record?
A: inconclusive: 25.1 µM [activator, partial curve]

Q: `CCOC(=O)c1c(C)[nH]c(C)c1S(=O)(=O)NCC(=O)NCc1cccc(Br)c1` was tested. Which max response, negative = inhibition did it give?
A: inactive: -3.11%

Q: How did the Potency turn out when `Cc1ccccc1Cn1nc(C)c(NC(=O)c2cc3nc(-c4ccco4)cc(C(F)(F)F)n3n2)c1C` was run?
A: inconclusive: 31.6 µM [activator, single point]

Q: For `CCOC(=O)c1sc2nc(CC(=O)OC)nc(N3CCN(c4ccc(OC)cc4)CC3)c2c1C`, which Potency is on record?
A: inconclusive: 25.1 µM [activator, single point]

Q: Which Potency does the source give for `Cc1ccc(C)c(CN2C(=O)c3ccccc3S(=O)(=O)c3ccc(C(=O)NCCc4ccc(Cl)cc4)cc32)c1` here?
A: active: 10 µM

Q: Which max response, negative = inhibition does the source give for `CCCCC(C=O)CC` (stereo not drawn) here?
A: inactive: 0.448%

Q: Which Potency does the source give for `CCN1C(=O)S/C(=C/c2cn(C)c3ccccc23)C1=O` here?
A: inconclusive: 39.8 µM [inhibitor, single point]

Q: How did the Potency turn out when `C=CCOC(=O)C1=C(C)NC(SCC(=O)Nc2ccc(C)c(Cl)c2)=C(C#N)C1c1ccco1` (stereo not drawn) was run?
A: active: 10 µM

Q: `Cc1cc(NS(=O)(=O)c2cn(C)c(C)n2)ccc1Br` was tested. Which max response, negative = inhibition did it give?
A: inactive: 0.221%

Q: Which Potency does the source give for `Cc1ccc(C)c(N2CCN(C(=O)c3cn(C)c4ccc(S(=O)(=O)N(C)C)cc4c3=O)CC2)c1` here?
A: inconclusive: 25.1 µM [activator, partial curve]

Q: Which Potency does the source give for `COc1cccc(C(=O)COC(=O)c2cc(-c3cccs3)nc3ccccc23)c1` here?
A: inconclusive: 39.8 µM [inhibitor, single point]

Q: `Cn1nnnc1SCC1=C(C(=O)O)N2C(=O)C(NC(=O)C(OC=O)c3ccccc3)C2SC1` (stereo not drawn) was tested. Which Potency did it give?
A: inconclusive: 39.8 µM [activator, single point]

Q: With `COC(=O)N1CC=CC1(C)C(=O)NCc1ccc(C)o1` (stereo not drawn) as the molecule, how does the max response, negative = inhibition read?
A: inactive: 12.5%

Q: Which Potency does the source give for `O=C(Cn1cc(C(F)(F)F)ccc1=O)N/N=C/c1ccc(Cl)cc1Cl` here?
A: inconclusive: 31.6 µM [inhibitor, single point]

Q: How did the Potency turn out when `CCCCCc1ccc(-c2ccc(/C=C/C(=O)O)cc2)nc1` was run?
A: inconclusive: 31.6 µM [inhibitor, single point]

Q: With `COc1ccc(C(=O)NCc2nc(-c3cccc(C)c3)no2)cc1OC` as the molecule, how does the Potency read?
A: inconclusive: 39.8 µM [activator, single point]

Q: `CCN(C(=O)COC(=O)c1cc(NS(=O)(=O)c2ccc(Cl)c([N+](=O)[O-])c2)ccc1O)C1CCCCC1` was tested. Which Potency did it give?
A: inconclusive: 25.1 µM [inhibitor, single point]

Q: How did the Potency turn out when `CC(=O)N1CCN(c2ccc(NC(=O)c3ccc(C(C)(C)C)cc3)cc2)CC1` was run?
A: inconclusive: 39.8 µM [activator, single point]

Q: Which Potency does the source give for `Cc1ccc(C(=O)Nc2cccc([N+](=O)[O-])c2)cc1S(=O)(=O)Nc1ccc(NC(=O)c2ccccc2)cc1` here?
A: inconclusive: 7.94 µM [inhibitor, full curve, poor fit]

Q: With `COC(=O)c1sccc1S(=O)(=O)N(CC(=O)Nc1ccccc1C)c1ccc(Cl)cc1` as the molecule, how does the max response, negative = inhibition read?
A: inactive: 2.35%

Q: Which Potency does the source give for `COc1ccccc1C(=O)NCC(=O)OCC(=O)c1ccc2c(c1)-c1ccccc1C2` here?
A: active: 10 µM

Q: Which max response, negative = inhibition does the source give for `O=C(O)C1(C(=O)O)CCN(S(=O)(=O)c2ccccc2)CC1` here?
A: inactive: -6.7%

Q: With `Cc1ccc(NC(=O)c2cc(N3C(=O)C=CC3=O)ccc2N2CCOCC2)cc1Cl` as the molecule, how does the Potency read?
A: inconclusive: 20 µM [activator, single point]

Q: Which Potency does the source give for `O=C(CSc1nnc(-c2cccs2)n1CC1CCCO1)c1cc2ccccc2o1` (stereo not drawn) here?
A: inconclusive: 39.8 µM [inhibitor, single point]

Q: For `Cn1cc(/C=N/NC(=O)COc2ccccc2[N+](=O)[O-])c2ccccc21`, which Potency is on record?
A: inconclusive: 39.8 µM [activator, single point]

Q: Which Potency does the source give for `Cc1cccc(OCC(=O)Nc2ccc(S(=O)(=O)Nc3onc(C)c3C)cc2)c1C` here?
A: inconclusive: 39.8 µM [activator, single point]

Q: Which Potency does the source give for `O=C(Nc1noc2ccccc12)c1cccc(Cl)c1Cl` here?
A: active: 25.1 µM

Q: Which Potency does the source give for `COc1ccc(CNCCC(c2ccc(C)cc2)c2ccco2)cc1` (stereo not drawn) here?
A: inconclusive: 39.8 µM [inhibitor, single point]

Q: `CCn1nc(C(=O)OCC(=O)c2cc(C)n(Cc3cccs3)c2C)c2ccccc2c1=O` was tested. Which Potency did it give?
A: inconclusive: 12.6 µM [inhibitor, partial curve]

Q: For `O=C(Nc1ccccc1-c1nnn(CC(=O)N2CCCc3ccccc32)n1)c1ccco1`, which Potency is on record?
A: inconclusive: 31.6 µM [inhibitor, single point]

Q: Which max response, negative = inhibition does the source give for `Cc1ccc(NC(=O)C2CCCN(C(=O)c3cnn(-c4ccccc4)c3-n3cccc3)C2)cc1` (stereo not drawn) here?
A: inactive: 0.322%

Q: `O=C(c1ccco1)n1nc(-c2ccco2)nc1SCc1ccccc1` was tested. Which Potency did it give?
A: inconclusive: 39.8 µM [inhibitor, single point]

Q: Which Potency does the source give for `Cc1cc(OCC(=O)N(Cc2ccc(N(C)C)cc2)Cc2ccco2)cc(C)c1Cl` here?
A: inconclusive: 39.8 µM [inhibitor, single point]

Q: For `Cc1ccc2cc(C)c3nnc(SCC(=O)Nc4nc5c(s4)CCCC5)n3c2c1C`, which Potency is on record?
A: inconclusive: 31.6 µM [activator, single point]

Q: Which max response, negative = inhibition does the source give for `Cc1cc2c(cc1Cl)C(c1ccc3c(c1)OCO3)CC(=O)O2` (stereo not drawn) here?
A: inactive: -1.4%

Q: `CCn1nnc(NC(=O)COc2ccc(C3CCCCC3)cc2)n1` was tested. Which Potency did it give?
A: inconclusive: 31.6 µM [activator, single point]

Q: Which Potency does the source give for `O=c1c2c(n3nnnc3n1Cc1ccccc1)-c1ccccc1CC21CCCC1` here?
A: active: 25.1 µM

Q: With `COc1ccc(CNC(=O)COC(=O)c2c(-c3c(F)cccc3Cl)noc2C)cc1OC` as the molecule, how does the Potency read?
A: inconclusive: 39.8 µM [activator, single point]

Q: How did the Potency turn out when `COc1ccccc1-c1nc2c(c(SCc3cc(C)ccc3C)n1)Cc1c(CO)cnc(C)c1O2` was run?
A: inconclusive: 25.1 µM [activator, single point]

Q: `O=C(Cn1c(=O)oc2cc(S(=O)(=O)N3CCCCCC3)ccc21)NC1CCCCC1` was tested. Which Potency did it give?
A: inconclusive: 5.01 µM [inhibitor, full curve]

Q: How did the Potency turn out when `COc1ccc2c(Sc3ccc(C)cc3)c(C(=O)NCC(C)c3ccccc3)[nH]c2c1` (stereo not drawn) was run?
A: inconclusive: 39.8 µM [inhibitor, single point]
